Experimental data: the supplement of paper PMC4723716
± gives the uncertainty stated by the source. Whole data set: some 9,900 compounds, median “viability index relative to DMSO control” near 1, cut for the lowest 2% near 0.85. The list shows a part of the results.

System: Plasmodium falciparum NF54 stage V gametocytes
Assay: viability index relative to DMSO control (fraction); higher = less gametocyte killing
Conditions: 2.5 µM, incubation time: 72 h
Outline: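 Stage V gametocytes of P. falciparum NF54 were held in serum-free screening medium at 0.75% gametocytemia and 1.25% hematocrit, 10 µl per well of a 1,536-well plate, and exposed to compound at 2.5 µM for 72 hr at 37°C under low oxygen. A 3 µl mix of 2.5 µM MitoTracker Red CMXRos with 0.13% saponin was then added for one to two hours, after which one field per well was imaged and red particles of 20–70 µm2 were counted. The viability index equals this count divided by the plate mean from wells given solvent alone.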

[1] = library set: Broad Institute DOS

SMILES | viability index [1] | viability index (library set: Broad Institute Blood Stage)
COC(=O)C[C@H]1CC[C@H]2[C@@H](COC[C@@H](O)CN2S(=O)(=O)c2ccccc2OC)O1 | 1.06 ± 0.036 | 
CN1C(=O)c2cc(NS(C)(=O)=O)ccc2OC[C@H]2O[C@@H](CC(=O)N3CCOCC3)CC[C@@H]21 | 1.05 ± 0.016 | 
C[C@@H]1CN([C@H](C)CO)C(=O)c2cc(NC(=O)CCCCCC(=O)Nc3ccccc3N)ccc2O[C@@H](C)CCCCO[C@H]1CN(C)Cc1ccc(Cl)c(Cl)c1 | 0.902 ± 0.064 | 
CC(=O)N1[C@@H](CO)[C@H](c2ccccc2)[C@@H]1CN(CC(C)C)C(=O)c1ccccn1 | 1.05 ± 0.061 | 
CN1C(=O)c2cc(NC(=O)c3cscn3)ccc2OC[C@@H]2O[C@H](CC(=O)NCc3ccc(Cl)c(Cl)c3)CC[C@H]21 | 0.978 ± 0.14 | 
CC(C)(C)[S@@](=O)N1Cc2cc(C(=O)N3CCc4ccccc4C3)nc(-c3cccc(-c4cncnc4)c3)c2[C@H]1CCO | 1.02 ± 0.053 | 
O=C(c1ccccn1)N1C[C@@H]2[C@H](c3ccccc31)[C@@H](CO)N2C(=O)Nc1ccccc1Cl | 0.985 ± 0.012 | 
O=C(CCN1CCCCC1)NCC[C@@H]1CC[C@H](NS(=O)(=O)c2cccc(Cl)c2)[C@@H](CO)O1 | 0.972 ± 0.075 | 
C[C@@H](NC(=O)C[C@@H]1C=C[C@H](NC(=O)c2cccnc2)[C@@H](CO)O1)c1ccccc1 | 1.09 ± 0.053 | 
Cc1cccc(S(=O)(=O)N[C@@H]2CC[C@H](CCNC(=O)Nc3cc(F)ccc3F)O[C@H]2CO)c1 | 1.06 ± 0.15 | 
O=S(=O)(c1cccc(F)c1)N1CC[C@@H]2[C@H](CO)Nc3ccc(C#Cc4ccccc4F)cc3[C@@H]21 | 1.017 ± 0.0066 | 
CN1CCN(C(=O)C[C@H]2CC[C@@H]3[C@H](COC[C@@H](O)CN3Cc3cccc(-c4ccncc4)c3)O2)CC1 | 1.07 ± 0.024 | 
C[C@@H]1CN([C@@H](C)CO)C(=O)c2cc(NS(=O)(=O)c3ccc(Cl)cc3)ccc2O[C@@H](C)CCCCO[C@H]1CN(C)C(=O)CCCN(C)C | 1.03 ± 0.02 | 
Cc1noc(C)c1NC(=O)N(C)C[C@H]1OCc2cn(nn2)CCCC(=O)N([C@H](C)CO)C[C@@H]1C | 1.07 ± 0.041 | 
COc1ccc2c3c([C@H](CO)N(C[C@]33CN(C3)C(=O)Cc3ccccc3)C(=O)c3ccccn3)n(C)c2c1 | 1.03 ± 0.053 | 
COc1ccc2c3c([nH]c2c1)[C@H](CO)N(C[C@]31CCN(Cc2cccc(F)c2)CC1)C(=O)C1CCOCC1 | 1.043 ± 0.0076 | 
COc1ccccc1CNC(=O)C[C@@H]1C=C[C@@H](NC(=O)CC2CC2)[C@H](CO)O1 | 1.05 ± 0.034 | 
O=C([C@@H]1[C@@H](CO)[C@@H]2Cn3c(cccc3=O)[C@@H]2N1Cc1cocn1)N1CCC(Cc2ccccc2)CC1 | 1.07 ± 0.055 | 
O=C(c1ccccc1F)N1CC(=O)N2[C@H](CO)[C@H](c3ccc(C#Cc4ccccc4)cc3)[C@H]2C1 | 1.06 ± 0.17 | 
COc1ccc(S(=O)(=O)Nc2ccc3c(c2)CC(=O)N([C@@H](C)CO)C[C@@H](C)[C@H](CN(C)C(=O)Nc2c(C)noc2C)O3)cc1 | 0.986 ± 0.019 | 
C[C@H](CO)N1C[C@H](C)[C@@H](CN(C)S(C)(=O)=O)Oc2c(NC(=O)Nc3ccc4c(c3)OCO4)cccc2C1=O | 0.988 ± 0.074 | 
O=C1CN(S(=O)(=O)Cc2ccccc2)C[C@H]2[C@@H](c3ccc(C#Cc4ccccc4)cc3)[C@@H](CO)N12 | 1.08 ± 0.02 | 
CCCC#Cc1ccc([C@H]2[C@@H](CO)N3C(=O)CN(C(=O)c4cccnc4)C[C@H]23)cc1 | 1.06 ± 0.058 | 

SMILES | viability index [1] | viability index (library set: Broad Institute Blood Stage)
C[C@@H]1CN([C@H](C)CO)C(=O)c2cc(/C=C/c3ccccc3)cnc2O[C@@H]1CN(C)S(=O)(=O)c1ccccc1F | 1.08 ± 0.021 | 
CO[C@@H]1CC[C@@H]2CCN(C)C(=O)CC3(CCCCC3)CN(C)C(=O)c3cccc(C#N)c3OC[C@@H]1O2 | 1.066 ± 0.009 | 
O=C(Cc1ccncc1)N1C[C@@H]2N[C@H](C1)[C@@H]2c1ccc(/C=C/c2ccccc2)cc1 | 0.9847 ± 0.0017 | 
COCC(=O)N1[C@H](CO)[C@H]2c3ccccc3N(C(=O)c3cccnc3)C[C@H]21 | 1.09 ± 0.057 | 
C[C@H](CO)N1C[C@H](C)[C@@H](CN(C)Cc2ccc(C(=O)O)cc2)OCCCC[C@H](C)Oc2ccc(N(C)C)cc2C1=O | 1.09 ± 0.13 | 
COCC(=O)Nc1ccc2c(c1)[C@@H]1C[C@@H](CC(=O)NCc3ccc4c(c3)OCO4)O[C@H](CO)[C@@H]1O2 | 1.16 ± 0.052 | 
C[C@@H]1CN([C@H](C)CO)S(=O)(=O)c2ccc(C#CCC3CCCC3)cc2O[C@H]1CN(C)C(=O)c1cnccn1 | 1 ± 0.06 | 
C[C@H](CO)N1C[C@H](C)[C@@H](CN(C)C(=O)Nc2ccc3c(c2)OCO3)Oc2ccc(NC(=O)Cn3cnnn3)cc2C1=O | 1.06 ± 0.021 | 
Cc1noc(C)c1NC(=O)N1C[C@@H](O)COC[C@H]2O[C@H](CC(=O)NCC3CC3)CC[C@@H]21 | 1.1 ± 0.048 | 
COC(=O)C[C@@H]1CC[C@H]2[C@@H](COc3ccc(NC(=O)Nc4cccc(C#N)c4)cc3C(=O)N2C)O1 | 1.14 ± 0.037 | 
COc1ccc(C#Cc2ccc([C@@H]3[C@@H](CO)N4CCCCN(C)C[C@@H]34)cc2)cc1 | 0.945 ± 0.077 | 
C[C@H](CO)N1C[C@H](C)[C@H](CN(C)C(=O)CCC(F)(F)F)OCc2cn(nn2)CCCC1=O | 1.04 ± 0.062 | 
CS(=O)(=O)Nc1ccc2c(c1)[C@@H]1C[C@@H](CC(=O)NCCc3ccccc3)O[C@@H](CO)[C@@H]1O2 | 1.14 ± 0.061 | 
C/C=C/c1ccc([C@H]2[C@@H](CO)N3C(=O)CN(C(=O)Nc4cccc(OC)c4)C[C@@H]23)cc1 | 1.05 ± 0.071 | 
COc1ccc(C#Cc2ccc([C@H]3[C@@H](CO)N4CCCCN(C)C[C@H]34)cc2)cc1 | 0.917 ± 0.074 | 
O=C(C[C@@H]1CC[C@H]2NC[C@H](O)COC[C@@H]2O1)N1CCc2ccccc2C1 | 0.9465 ± 0.005 | 
O=C(Nc1ccc(F)cc1)N1CC(=O)N2[C@H](CO)[C@@H](c3ccc(C#Cc4cccnc4)cc3)[C@H]2C1 | 0.993 ± 0.082 | 
C[C@@H]1CN([C@@H](C)CO)S(=O)(=O)c2ccc(C#CC3(O)CCCC3)cc2O[C@@H]1CN(C)C(=O)Nc1cccc(F)c1 | 0.955 ± 0.018 | 
Cc1ccc(S(=O)(=O)N(C)C[C@H]2OCCCC[C@@H](C)Oc3ccc(NC(=O)c4ccncc4)cc3C(=O)N([C@@H](C)CO)C[C@H]2C)cc1 | 0.903 ± 0.055 | 
O=C(N[C@H]1C=C[C@@H](CC(=O)N2CCC(Cc3ccccc3)CC2)O[C@@H]1CO)c1cnccn1 | 1.042 ± 0.0049 | 
Cc1noc(C)c1S(=O)(=O)N(C)C[C@H]1Oc2c(NS(=O)(=O)c3cn(C)cn3)cccc2C(=O)N([C@H](C)CO)C[C@@H]1C | 1.05 ± 0.083 | 
COc1ccc(CN2[C@@H](CO)[C@@H]3c4ccccc4NC[C@@H]32)cc1 | 1.05 ± 0.071 | 
O=C(O)C[C@@H]1C=C[C@@H](NC(=O)Nc2cc(F)ccc2F)[C@H](CO)O1 | 0.96 ± 0.091 | 

SMILES | viability index [1] | viability index (library set: Broad Institute Blood Stage)
CCCC(=O)N1C[C@@]2(C1)CN(Cc1cccnc1)[C@H](CO)c1[nH]c3cc(OC)ccc3c21 | 1.06 ± 0.064 | 
C[C@H]1CN([C@@H](C)CO)C(=O)c2cc(NS(=O)(=O)c3cn(C)cn3)ccc2O[C@H]1CN(C)C(=O)Nc1cccc2ccccc12 | 0.974 ± 0.062 | 
OC[C@H]1[C@@H](c2ccc(-c3cccnc3)cc2)[C@@H]2CN(Cc3ccccn3)CCCCN12 | 0.98 ± 0.036 | 
CC(C)(O)C#Cc1cccc(-c2nc(C(=O)O)cc3c2[C@H](CCO)N(S(=O)C(C)(C)C)C3)c1 (some centres undefined) | 0.953 ± 0.049 | 
COc1cccc(C(=O)N2C[C@H]3[C@@H](c4ccccc42)[C@@H](CO)N3C(=O)c2cccc(F)c2)c1 | 1.02 ± 0.075 | 
O=C(c1cnccn1)N1CC(=O)N2[C@H](C1)[C@H](c1ccc(C#CC3CC3)cc1)[C@@H]2CO | 1.0181 ± 0.0005 | 
CCS(=O)(=O)Nc1ccc2c(c1)C(=O)N(C)[C@H]1CC[C@H](CC(=O)NCc3ccc(OC)cc3)O[C@H]1CO2 | 0.947 ± 0.11 | 
Cc1noc(C)c1S(=O)(=O)N(C)C[C@@H]1OCc2ccccc2-c2c(n(C)c3ccccc23)C(=O)N([C@@H](C)CO)C[C@@H]1C | 1.03 ± 0.024 | 
O=C1N[C@H](c2ccccc2)COCc2cn(nn2)CC[C@H]1Cc1ccc(C(F)(F)F)cc1 | 1.04 ± 0.027 | 
C[C@H](NC(=O)C[C@@H]1C[C@@H]2c3cc(NS(=O)(=O)c4ccc(F)cc4)ccc3O[C@@H]2[C@@H](CO)O1)c1ccccc1 | 1.07 ± 0.024 | 
CN(C)CC(=O)N1C[C@H]2[C@@H](c3ccccc31)[C@@H](CO)N2C(=O)c1ccccn1 | 1.048 ± 0.004 | 
COc1ccc2c3c([C@H](CO)NC[C@]33CCN(CC4CCCC4)CC3)n(C)c2c1 |  | 0.986 ± 0.023
N#C[C@@H]1[C@@H](c2ccc(-c3cncnc3)cc2)[C@H](CO)N1C(=O)Cc1ccccc1 | 1.05 ± 0.015 | 
C[C@@H]1CN([C@H](C)CO)C(=O)c2cc(-c3ccc(F)cc3)cnc2O[C@H]1CN(C)S(C)(=O)=O | 1.1 ± 0.046 | 
CC(C)[C@H]1C/C=C/C[C@@H](C)Oc2ccccc2C(=O)N(C)[C@H](Cc2ccccc2)C(=O)N1.CC(C)[C@H]1C/C=C\C[C@@H](C)Oc2ccccc2C(=O)N(C)[C@H](Cc2ccccc2)C(=O)N1 | 1.08 ± 0.087 | 
CO[C@@H]1CN(C)C(=O)c2cc(NS(=O)(=O)c3cn(C)cn3)ccc2OC[C@H](C)NC[C@@H]1C | 0.949 ± 0.054 | 
O=C(C[C@H]1CC[C@@H](NS(=O)(=O)c2ccccc2F)[C@H](CO)O1)NCCCN1CCOCC1 | 0.967 ± 0.05 | 
C[C@@H](NC(=O)C[C@H]1C=C[C@@H](NC(=O)c2cccnc2)[C@@H](CO)O1)c1ccccc1 | 0.959 ± 0.11 | 
CO[C@H]1CN(C)C(=O)c2ccc(NC(C)=O)cc2OC[C@@H](C)N(Cc2cccc(F)c2)C[C@@H]1C | 1.07 ± 0.058 | 
CCCC#Cc1ccc2c(c1)O[C@H](CN(C)Cc1ccccn1)[C@@H](C)CN([C@H](C)CO)S2(=O)=O | 0.983 ± 0.041 | 
C[C@@H]1CN([C@H](C)CO)C(=O)CCCn2cc(nn2)CO[C@@H]1CN(C)S(=O)(=O)c1ccc(-n2cccn2)cc1 | 1.057 ± 0.0017 | 
O=C(C[C@@H]1CC[C@@H](NC(=O)CN2CCOCC2)[C@H](CO)O1)NC1CCC1 | 1.08 ± 0.059 | 
O=C1N[C@H](c2ccccc2)COCc2cn(nn2)CC[C@@H]1Cc1ccc(C(F)(F)F)cc1 | 1.01 ± 0.11 | 
